The list shows a part of the results.

Sequences and labels used below:
T1: UNK ZnF1-3 (human, UniProt Q9C0B0 31-174)
T1 sequence: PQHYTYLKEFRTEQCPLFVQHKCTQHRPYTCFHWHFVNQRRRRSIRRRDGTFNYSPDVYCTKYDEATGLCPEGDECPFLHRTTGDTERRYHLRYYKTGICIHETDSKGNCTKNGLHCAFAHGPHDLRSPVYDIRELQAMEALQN

B1: chr17:24830180:24830181:-_ENSMUSG00000040888_ENSMUST00000046839|mus_hu|FALSE|FALSE (ssRNA)
RNA: GGGAGUUCUACAGUCCGACGAUCAAUAUACUGAAGCCAGGUUCUCAGUCACUUCAGCGUUUCAUUUGGGCUUCAAACUCUGAUGAAGUGAGCCCCACGAAUCCCCUGUGGACAGGCAUGACACAACGCUGGCAGGCAUGUGCCCAACAGAGGAUUGAGCAUCA
B2: 37501169_37502713_236_3pUTR_ENSMUSG00000026915_ENSMUST00000072186|mouse|control|control (ssRNA)
RNA: GGGAGUUCUACAGUCCGACGAUCCAUAACAUGGCGAUCAUCAUUGGCAAAAGAUCUAAUAGAUCUCAUGGUUUCCUAUGGUAUUUUAGCUUCUUUUUCCGAUCCUUUUCUCUCUUUCUUGUCGUCUUCACUAGACACUGUUUUCAACAGAGGAUUGAGCAUCA
B3: chr1:39494564:39494565:+_ENSG00000168653_ENST00000372967|hu_hu|hu_hu_hu_mus_True|18_98 (ssRNA)
RNA: GGGAGUUCUACAGUCCGACGAUCAUGCAUUCGCCUCAUCGUUUUCUACCGAAGCAAGCACUCUUCGAAGUCAUCGAACUCUAUCUUGCACUCCUUUUUCGCCCGGGUCCCACCGAUUCCAUGUGCACACUCUAUCCACUCUUUCAACAGAGGAUUGAGCAUCA
B4: chr7:135832278:135832279:+_ENSMUSG00000042105_ENSMUST00000118605|mus_hu|FALSE|FALSE (ssRNA)
RNA: GGGAGUUCUACAGUCCGACGAUCAAGCUGCUCUAUUCGUUUUUGUUUUCCCGCCACUGGGGCAAGCCCUCCUUCCACACUAUGAAGACGAAAAUUGCCAGCACCACAUGAAGCCCGACCACUGCAACAAUGGUCGCAUAAAAGCAACAGAGGAUUGAGCAUCA
B5: chr20:37186997:37186998:+_ENSG00000170471_ENST00000397040|hu_hu|FALSE|FALSE (ssRNA)
RNA: GGGAGUUCUACAGUCCGACGAUCAUCAAAAAAUCCAGGUAUCGUGGAAUCAAGUGCAAUAAGGUGAGGAGGUAGACGACUAUUUGCAGGUUCCUUCAGUGCUUCUAAGGACAAAAAUCCAAAGUGUGAGAGAAAAAGGCGGGCCAACAGAGGAUUGAGCAUCA
B6: 25678777_25679749_507_CDS_ENSG00000077097_ENST00000264331|human|control|control (ssRNA)
RNA: GGGAGUUCUACAGUCCGACGAUCUUUUGCACCAUAACCAUUACGACCACCUGUAACUUUUUUCUCAUCAUCAUCAUAGUUACUGGAUGUUAAAAGCUGUCCAAAAAUUAAAGCAGGAACAUAAACUUUCUCUACCUUGUGUUCCAACAGAGGAUUGAGCAUCA
B7: chr18:52893488:52893489:-_ENSG00000196628_ENST00000354452|hu_hu|hu_hu_hu_mus_True|18_38 (ssRNA)
RNA: GGGAGUUCUACAGUCCGACGAUCUAUUUAGACCAUUUCCGCGGAGUUAUGGCAUUUACUCAGUGCUGAUAGGUGGAAAAACUACUUCAACAGGGAUUUUUUUUUUUCUUAAUACAUGCCAAGAAUUUGUGGCUGUCAAAACAGCAACAGAGGAUUGAGCAUCA
B8: chr9:72186818:72186819:+_ENSMUSG00000038535_ENSMUST00000098576|mus_hu|FALSE|FALSE (ssRNA)
RNA: GGGAGUUCUACAGUCCGACGAUCUUUUUUUAAUUCAGAAAGGUGCUCAGAAGUUGGGAUACAAACAGAAACUUUCUGCAUUACAACUUGGCAAGUAUGAGUUUUAUGUUGACUUAAGUGUGUAGCCAUAUUAUCUAAGCCAGACAACAGAGGAUUGAGCAUCA
B9: chr3:9412954:9412955:+_ENSG00000134077_ENST00000452837|hu_mus|hu_hu_hu_mus_False|48_68 (ssRNA)
RNA: GGGAGUUCUACAGUCCGACGAUCGGUUGAUAUCUCUUCUUUGAUGGCUGGAUUUUCAUAAUAGUCCAAGAUAUGAGAAUCUGAAGUAUGGCUAGUGUGCUUUUUCUUACCAUCUUUCUCAUCUGCUUUGUCUCCUUGUCCACACAACAGAGGAUUGAGCAUCA
B10: 13205954_13206074_1622_CDS_ENSG00000107186_ENST00000319217|human|control|control (ssRNA)
RNA: GGGAGUUCUACAGUCCGACGAUCUUUUGUGACGUCUUCCCUUGACAUGAGCUCGGCUUCCUGCUUCAUUCCUCUCCUCAUUAGUGUCAGGAGCACAGUUUGUCCUGUAUGUCGCAAUACCUCUACUGCUUGCUGAUUAGUAAACAACAGAGGAUUGAGCAUCA
B11: chr3:57646030:57646031:-_ENSMUSG00000027805_ENSMUST00000066882|mus_mus|FALSE|FALSE (ssRNA)
RNA: GGGAGUUCUACAGUCCGACGAUCUUAAAUCUGUACAUUAUCCACAAUGCCCAAACAAUAGAAGCAAUACUAGAAUGUCCCUAAGGUAGUGCCAUUCGAAAGGAAAUCCAUCUCACAAUAGCAACAGUUCAUUUUAACAAUAGUCAACAGAGGAUUGAGCAUCA
B12: 62054583_62054703_1311_3pUTR_ENSMUSG00000020075_ENSMUST00000045866|mouse|control|control (ssRNA)
RNA: GGGAGUUCUACAGUCCGACGAUCUAAAAUUUCUUCCACUUGAUCAGCAAAACCCAUAUCCAACAUCUGGUCGACUUCAUCCAGGACAACAUGUUUAAGUUUGGUGAGAUCUAGCUUGCCAUUCUGCAAGUGGUCUUUAAUACGCAACAGAGGAUUGAGCAUCA
B13: 37417975_37418095_810_CDS_ENSG00000185917_ENST00000332131|human|control|control (ssRNA)
RNA: GGGAGUUCUACAGUCCGACGAUCGUACACGGCUCUGGUGUUGACGGUGCACCAAGCCCACAGCAGGGCACUGUAGCUGAAGAUGCUGUCAACAGCCUCCGCAAACAGAGGCUGCAGAGAAGAGAAAAAGUCUCUGGAGGAAGCCAACAGAGGAUUGAGCAUCA
B14: chr7:141441981:141441982:+_ENSG00000106028_ENST00000265304|hu_mus|hu_hu_hu_mus_False|18_28 (ssRNA)
RNA: GGGAGUUCUACAGUCCGACGAUCCUCAUGUCUUACAAACUGACGAAAUACCUGUAACACAGGUCUUCGAAACAUGGCUUCUGUUUUUCUUACAACCUAAUCUUUAGUUAGGCUUUUCCUGACGAUCAGAAAAGAGAAAAAUGACAACAGAGGAUUGAGCAUCA
B15: 111178374_111178494_4086_3pUTR_ENSMUSG00000046785_ENSMUST00000060711|mouse|control|control (ssRNA)
RNA: GGGAGUUCUACAGUCCGACGAUCGGUCGAAUAUCAGAUAUCUAUCCUGCAUAUUGGAUAUUUACAAUUCAUAACAGUAGCAAAAUUACAGUUAUGAAAUAGCAAAGAAAUAAUUUUAUGGCUGGGGGUUACCACAACAUGAGGCAACAGAGGAUUGAGCAUCA
B16: chr16:94664741:94664742:+_ENSMUSG00000040785_ENSMUST00000117648|mus_hu|mus_mus_mus_hu_False|68_108 (ssRNA)
RNA: GGGAGUUCUACAGUCCGACGAUCUGGCAUGGAUCUUGGUAGCUGAUAUUCAGGAGAAAGGCUGGCCAAAGGUGUGUAUAUGCUGGUGUACUGGGGCAAACCUGGUAACACGUUUAUGUAUGCUGGCGGUGUCUGGGUGAUAUCCAACAGAGGAUUGAGCAUCA
B17: chrX:20248820:20248821:+_ENSMUSG00000001924_ENSMUST00000001989|mus_hu|motif|central (ssRNA)
RNA: GGGAGUUCUACAGUCCGACGAUCGGCGAAGUCCGUCACCACAAAGUCAGGUUCUGCCAGUGAGGCCACCAAGGAUUUAAAGCGGAUCUUCUUAGGUACUUUGACCUGACUGACGAUGCCUCCACGGAUGUAGUCGGAGAAGUUCAACAGAGGAUUGAGCAUCA
B18: chr17:1456404:1456405:-_ENSG00000174238_ENST00000313486|hu_mus|FALSE|FALSE (ssRNA)
RNA: GGGAGUUCUACAGUCCGACGAUCCUCGUAGGGCUCAUUCACCAGGACCUCCACACCUUCCCCACCACCAGUUUCAUUUUUACUGGCUUCAGCCACAGAAUACAGCUGCCCCACUUGAUACUCAUCUACAGACACAGGCAGGAUCAACAGAGGAUUGAGCAUCA
B19: 21313033_21314341_968_CDS_ENSG00000088930_ENST00000377191|human|control|control (ssRNA)
RNA: GGGAGUUCUACAGUCCGACGAUCCUCACGAAGAACAUUAAGCCGAAGGAAGAUAAACUCUCCUUCUGCACAAGGAAGACUAUCGGCAAGUUCAUCAUGCUUUCCCUUCUUUUCUCUUGGCAAACCUUCACAAUCUUUGACCUCCAACAGAGGAUUGAGCAUCA
B20: chr17:64801638:64801639:+_ENSG00000154229_ENST00000413366|hu_mus|hu_hu_hu_mus_False|1_1 (ssRNA)
RNA: GGGAGUUCUACAGUCCGACGAUCUAUAUAUAUAUAUACAUAUGUACACAUAUAUAGUAAAACCCUAGUUAAACGUGUAAAGUAGCCAUUCAUUUUUAAAAUUACAUCUACAUUAAAAAAUUAAUAUAUCUGAUAGAGUGCCCACAACAGAGGAUUGAGCAUCA
B21: chr10:86154994:86154995:-_ENSMUSG00000020048_ENSMUST00000020238|mus_hu|FALSE|FALSE (ssRNA)
RNA: GGGAGUUCUACAGUCCGACGAUCUGCUUUAGUGUCUGGUAAAAGAUACCCUGACCGAAGCGUUGCUGUUUCAAACAAAACCACAGCAAGAUCCAAAACUGUUUUAUCAUCUUCAUCUUCCUUAAUUCGUCGAAGCAUGUCUCUCAACAGAGGAUUGAGCAUCA
B22: chr13:31711309:31711310:-_ENSG00000120694_ENST00000320027|hu_hu|FALSE|FALSE (ssRNA)
RNA: GGGAGUUCUACAGUCCGACGAUCCAUAAAGACUACAGACUUAAGCUUUUUUUCUUUUUCCAUAUAAUACACAAAAUUUCUAAAUAUCCUUAAAAAAGAAAAUAUAAAUAGUUUCAGUAUGUUAUGUAGAGUCACAUACUAUGGCAACAGAGGAUUGAGCAUCA

The target of this assay is T1, UNK ZnF1-3. Put plainly: nsRBNS (natural sequence RNA bind-n-seq); RBNS binding buffer (assumed for nsRBNS): 25 mM Tris pH 7.5, 150 mM KCl, 3 mM MgCl2, 0.01% Triton X-100, 500 ug/ml BSA, 20 U/ml SUPERase-In, 4 C; UNK is unkempt and MSI1 is Musashi-1; names of the RNAs are library labels; protein concentration not given here; high values mean tight binding.
As to B1, the binding signal was 0.828 enrichment R.

Take B2: the binding signal was 0.526 enrichment R.

With B3, the binding signal is 0.627 enrichment R.

The molecule B4 displayed a binding signal of 1.53 enrichment R.

Turning to B5, the binding signal stood at 1.76 enrichment R.

As to B6, the binding signal was 0.963 enrichment R.

In the case of B7, the binding signal came to 1.13 enrichment R.

B8 displayed a binding signal of 0.988 enrichment R.

Take B9: the binding signal is 0.38 enrichment R.

B10 came in with a binding signal of 0.487 enrichment R.

As for B11, the binding signal turned out to be 0.827 enrichment R.

With B12, the binding signal turned out to be 1.34 enrichment R.

B13 came in with a binding signal of 1.05 enrichment R.

As for B14, the binding signal is 0.515 enrichment R.

The molecule B15 displayed a binding signal of 0.728 enrichment R.

Regarding B16, the binding signal turned out to be 1.09 enrichment R.

The molecule B17 displayed a binding signal of 0.984 enrichment R.

As for B18, the binding signal is 1.24 enrichment R.

Molecule B19 came in with a binding signal of 0.706 enrichment R.

In turn, B20 returned a binding signal of 1.92 enrichment R.

In turn, B21 returned a binding signal of 0.908 enrichment R.

B22 came in with a binding signal of 0.693 enrichment R.
